In the RNAGym collection of RNA variant scans (doi:10.1093/nar/gkz1192):
Read counts are not given, so values of variants with three or more changes are uncertain.

B1: CPEB3 Ribozyme (parent)
chain: UAACAGGGGGCCACAGCAGAAGCGUUCACGUCGCAGCCCCUGUCAGAUUCUGGUGAAUCUGCGAAUUCUGCUGUAUAUCUC

Variants of: B1
Test: self-cleavage, relative activity (ratio to wild type); higher = more cleavage; in vitro, sequencing
Outline: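 Libraries of CPEB3 self-cleaving ribozyme mutants came from rounds of error-prone PCR and carried barcodes, which DNA sequencing matched to variants. In vitro transcription used T7 RNA polymerase at 37°C for 5 hours, with a further 15 min in DNase I before EDTA stopped the reaction; the ribozymes cleaved during both steps. The RNA was reverse transcribed with template switching and sequenced on Illumina. Relative activity is the cleaved/total read fraction of a variant divided by that of the unmutated ribozyme, averaged over three batches with at least 5 reads.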

Variant	self-cleavage
UAACGGGGAGCCACAGCAGAAGCGUUCACGUCGCAGCCCCUGUCAGAUCCUGGUUAAUCUGCGAAUUCUGCUGUAUACCUC	0.08
UAACGGGGUGCCACAGCAGAAGCGUUCACGUCGCAGCCCCUGUCAGAUUCUGGUGGAUCUGCGAAUUCUGCUGUAUAUCUC	0.08
UAACGGGGUGCCACAGCAGAAGCGUACACGUCGCAGCCCCUGUCAGACUCUGGUGGAUCAGCGAAUUCUGCCGUAUAUCUC	0.05
UAACGGGGGCCCACAGCAGAAGCGUUCACGUCGCAGCCCCUGUCAGAUCCUGGUGGGUCUGCGAAUUCUGCUGUAUAUCUC	0.49
UAACGGGGGACCUCAGCAGAAGCGUUCACGUCGCAGCCCCUGUCAGAUUCUGGUGAUCCUGCGAAUUCUGCUGCAUAUCUC	0.47
UAACGGGGUGCCACAGCAGAAGCGUUCACGUCGCAGUCCCUGUCAGAUUCUGGUGGAUCAGCGAAUUCUGCUGUAUAUCUC	0.06
UAACGGGGAGCCACAGCAGAAGCGUUCACGUCGCAGCCCCUGUCAGAUUCUGGUUAAUCUGCGAAUUCUGCUGUAUAUCUC	0.4
UAACGGGGGCCCACAGCUGAAGCGUUCACGUCGCAGCCCCUGUCAGAUUCUGGUGGAUCUGCGAAUUCUGCUGUAUAUCUC	0.33
UAACGGGGGACCACAGCAGAAGCGUUCACGUCGCAGCCCCUGUCAGAUUCCGGUGAAUCUGCGAAUUCUGCUGUAUACCUC	0.12
UAACGGGGGCCCACAGCAGAAGCGUCCACGUCGCAGCCCCUGUCAGAUUCUGGUGAAUCUGCGAAUUCUGCUGUAUAUCUC	0.5
UAACGGGGAGCCGCAGCAGAAGCGUUCACGUCGCAGCCCCAGUAAGAUUCUGGUGAAUCUGCGAAUUCUGCUGUAUAUCUC	0.07
UAACGGGGGACCACAGCAGGAGCGUUCACGUCGCUGCCCCUGUCAGAUUCUGGUGAAUCUGUGAAUUCUGCUGUAUAUCUC	0.1
UAACGGGGAGCCACAGCAGAAGCGUCCACGUCGCAGCCCCUGUCAGAUUCUGGCGAAUCUGCGAAUUCUGCUGUAUAUCUC	0.37
UAACGGGGGACCACAGCAGAAGCGUGCACGUCGCAGCCCCUGUCAGAUUCUGGCGAACCUGCGAACUCUGCUGUAUAUCUC	0.05
UAACGGGGAGCCACAGCAGAAGUGUUCACGUCGCAGCCCCUGUCAUAUUCUGGUGAAUCUGCGAAUUCUGCUGUAUAUCCC	0.04
UAACGGGGGACCACAGCAGAAGCGUUCACGUCGCAGCCCCUGUCAGGUUCUGGUGAAUCUGCGAAUUCUGCUGUAUAUCUC	0.38
UAACGGGGCGCCACAGCAGAAGCGUUCACGUCGCAGCCCCUGUCAGAUUCUGGUGGAUCUGCGGAUUCUGCUGUAUAUCUC	0.23

Variant	self-cleavage
UAACGGGGGUCCACAGCAGAAGCGUUCACGUCGCAGCCCCUGCCAGAUUCUGGUGAAUCUGCGAAUUCUGCUGUAUAUCUC	0.17
UAACGGGGAGCCACAGCAGAAGCGUUCACGUCGCGGCCCCUGUCAGAUUCUGGUGAAUCUGCGAAUUCUGCUGUAUGUCUC	0.98
UAACGGGGAGGCACAGCAGGAGCGUUCACGUCGCAGCCCCUGUCUGAUUCUGGUGAAUCUGCGAAUACUGCUGUAUAUCUC	0.05
UAACGGGGUGCCACAGCAGAAGCAUUCACGUCGCAGCCCCUGACAGAUUCUGGUGAAUCUGCGAAUUCUGCUGUAUAUCUC	0.06
UAACGGGGGUCCACAGCAUAAGCGUUCACGUCGCAGCCCCUAUCAGAUUCUGGUGAAUCUGCGAAUACUGCUGUAUAUCUC	0.08
UAACGGGGAGCCACAGCCGAAGCGUUCACGUCGCUGCCCCUGUCAGAUUCUGGUGAAUCUGCGGAUUCUUCUGUAUAUCUC	0.05
UAACGGGGUGCCACAGCAGAAGCGUUCGCGUCGCAGCCCCUGUCUGAUUCGGGUGAAUCUGCGAAUUCUGCUGUAUAUCUC	0.06
UAACGGGGGCCCACAGCAGAAGCGUUCACGUCGCAGCCCCUGUCAGAUUCUGGUGAAUCUGCGAAUCCUGCUGUAUAUCUC	0.54
UAACGGGGGACCACAGUAGAAGCGUUCACGUCGCAGCCCCUGUCAGAUUCUGGUGAAUCCGCGAAUUCUGCUGUAUAUAUC	0.15
UAACGGGGGACCACAGCAGAAGCGUUCACGUCGCAGCCCCUGUCAGAUUCUGGUGAAUCUGCGAAUCCUGCAGUAUAUCUC	0.09
UAACGGGGUGCCACAGCAGAAGCGUUCACGUCACGGCCCCUGUCAGAUUCUGGCGAAUCUGCGAAUUCAGCUGUAUAUCUC	0.04
UAACGGGGAGCCACAGCAGAAGCGUUCACGUCGCAGCCCCUGUCAGGUUCUGGUGAAUCUGCGAAUUCCGUUGUAUAUCUC	0.22
UAACGGGGGACCUCAGCAGAAGCGUUCACGUCGCAGCCCCUGUCAGAUUCCGGUGAAUCUCCGAAUUCUGCUGUAUAUCUC	0.08
UAACGGGGAGCCACAGCAGAAGCGUUCACGUCACAGCCCCUGACUGAUUCUGGUGAAUCAGCGAAUUCUGCUGUGUAUCUC	0.05
UAACGGGGGCCCACAGCGGUAGCGUUCACGUCGCAGCCCCUGUCAGAUACUGGUGAUUCUGCGAAUUCCGCUGUAUAUCUC	0.12
UAACGGGGAGCCACAGCAGAAGCGUUCACGUCGCAGCCUCUGUCAGAUUCUGGUGAAUCUGCGAAUUCUGCUGUCUAUCUC	0.06
UAACGGGGUGCCACAGCAGAAGCGUCCACGUCGCAGCCCCUGUCGGAUUCUGGUGAAUCUGCGAAUUCAGCUGUAUAUCUC	0.02
